# Results published in the supplement of paper PMC8728848.
# Some of the results follow.
# How the values were obtained:
# Experiment in all cases: glycan array binding signal (z-score within array); higher = stronger binding
# Conditions in all cases: glycan notation: IUPAC condensed, linker removed
# [1] = molecular target: Man(a1-3)[Man(a1-6)]Man(a1-6)[Man(a1-3)]Man
# Procedure, shortened: (§1)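 Glycan array data were curated from 3228 arrays in the Consortium for Functional Glycomics database and kept only where the protein sequence was available. Glycan names were converted to IUPAC-condensed notation, and columns mapping to the same glycan were averaged. The binding signal is a within-array Z-score, averaged across arrays of the same protein sequence at different concentrations or buffers and across linkers. Negative Z-scores can be read as non-binding.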
# [2] = molecular target: Man(a1-3)[Man(a1-6)]Man(a1-6)[Man(a1-3)]Man(b1-4)GlcNAc(b1-4)GlcNAc
# Procedure, shortened: as §1
# [3] = molecular target: Man(a1-3)[Man(a1-6)]Man(b1-4)GlcNAc(b1-4)GlcNAc
# Procedure, shortened: as §1
# [4] = molecular target: Man(a1-3)[Man(a1-6)]Man(b1-4)GlcNAc(b1-4)[Fuc(a1-6)]GlcNAc
# Procedure, shortened: as §1
# Man(a1-6)Man = molecular target: Man(a1-6)Man
# Procedure, shortened: as §1
# Man(b1-4)GlcNAc = molecular target: Man(b1-4)GlcNAc
# Procedure, shortened: as §1
# MurNAc(b1-4)GlcNAc = molecular target: MurNAc(b1-4)GlcNAc
# Procedure, shortened: as §1
# Neu5Ac(a2-3)Gal = molecular target: Neu5Ac(a2-3)Gal
# Procedure, shortened: as §1
# [5] = molecular target: Neu5Ac(a2-3)Gal(b1-3)GalNAc
# Procedure, shortened: as §1
# [6] = molecular target: Neu5Ac(a2-3)Gal(b1-3)GalNAc(b1-3)Gal(a1-4)Gal(b1-4)Glc
# Procedure, shortened: as §1
# [7] = molecular target: Neu5Ac(a2-3)Gal(b1-3)GalNAc(b1-4)Gal(b1-4)Glc
# Procedure, shortened: as §1
# [8] = molecular target: Neu5Ac(a2-3)Gal(b1-3)GalNAc(b1-4)[Neu5Ac(a2-3)]Gal(b1-4)Glc
# Procedure, shortened: as §1
# [9] = molecular target: Neu5Ac(a2-3)Gal(b1-3)GalNAc(b1-4)[Neu5Ac(a2-8)Neu5Ac(a2-3)]Gal(b1-4)Glc
# Procedure, shortened: as §1
# [10] = molecular target: Neu5Ac(a2-3)Gal(b1-3)GalNAc6S
# Procedure, shortened: as §1
# [11] = molecular target: Neu5Ac(a2-3)Gal(b1-3)GlcNAc
# Procedure, shortened: as §1
# [12] = molecular target: Neu5Ac(a2-3)Gal(b1-3)GlcNAc(b1-2)Man
# Procedure, shortened: as §1
# [13] = molecular target: Neu5Ac(a2-3)Gal(b1-3)GlcNAc(b1-2)Man(a1-3)[GlcNAc(b1-4)][Neu5Ac(a2-3)Gal(b1-3)GlcNAc(b1-2)Man(a1-6)]Man(b1-4)GlcNAc(b1-4)GlcNAc
# Procedure, shortened: as §1
# [14] = molecular target: Neu5Ac(a2-3)Gal(b1-3)GlcNAc(b1-2)Man(a1-3)[Neu5Ac(a2-3)Gal(b1-3)GlcNAc(b1-2)Man(a1-6)]Man(b1-4)GlcNAc(b1-4)GlcNAc
# Procedure, shortened: as §1
# [15] = molecular target: Neu5Ac(a2-3)Gal(b1-3)GlcNAc(b1-2)[Neu5Ac(a2-3)Gal(b1-3)GlcNAc(b1-4)]Man(a1-6)[Neu5Ac(a2-3)Gal(b1-3)GlcNAc(b1-2)Man(a1-3)]Man(b1-4)GlcNAc(b1-4)GlcNAc
# Procedure, shortened: as §1
# [16] = molecular target: Neu5Ac(a2-3)Gal(b1-3)GlcNAc(b1-3)Gal(b1-3)GlcNAc
# Procedure, shortened: as §1
# [17] = molecular target: Neu5Ac(a2-3)Gal(b1-3)GlcNAc(b1-3)Gal(b1-4)GlcNAc
# Procedure, shortened: as §1
# [18] = molecular target: Neu5Ac(a2-3)Gal(b1-3)GlcNAc(b1-3)GalNAc
# Procedure, shortened: as §1
# [19] = molecular target: Neu5Ac(a2-3)Gal(b1-3)GlcNAc(b1-6)GalNAc
# Procedure, shortened: as §1
# [20] = molecular target: Neu5Ac(a2-3)Gal(b1-3)GlcNAc6S
# Procedure, shortened: as §1
# [21] = molecular target: Neu5Ac(a2-3)Gal(b1-3)[Fuc(a1-4)]GlcNAc
# Procedure, shortened: as §1
# [22] = molecular target: Neu5Ac(a2-3)Gal(b1-3)[Fuc(a1-4)]GlcNAc(b1-3)Gal(b1-3)[Fuc(a1-4)]GlcNAc
# Procedure, shortened: as §1
# [23] = molecular target: Neu5Ac(a2-3)Gal(b1-3)[Fuc(a1-4)]GlcNAc(b1-3)Gal(b1-4)[Fuc(a1-3)]GlcNAc
# Procedure, shortened: as §1
# [24] = molecular target: Neu5Ac(a2-3)Gal(b1-3)[GlcNAc(b1-6)]GalNAc
# Procedure, shortened: as §1
# [25] = molecular target: Neu5Ac(a2-3)Gal(b1-3)[Neu5Ac(a2-6)]GalNAc
# Procedure, shortened: as §1
# [26] = molecular target: Neu5Ac(a2-3)Gal(b1-3)[Neu5Ac(a2-6)]GlcNAc(b1-3)[Fuc(a1-3)[Gal(b1-4)]GlcNAc(b1-6)]Gal(b1-4)Glc
# Procedure, shortened: as §1
# [27] = molecular target: Neu5Ac(a2-3)Gal(b1-3)]Neu5Ac(a2-3)Gal(b1-4)]GlcNAc
# Procedure, shortened: as §1
# Neu5Ac(a2-3)Gal(b1-4)Glc = molecular target: Neu5Ac(a2-3)Gal(b1-4)Glc
# Procedure, shortened: as §1
# [28] = molecular target: Neu5Ac(a2-3)Gal(b1-4)GlcNAc
# Procedure, shortened: as §1
# [29] = molecular target: Neu5Ac(a2-3)Gal(b1-4)GlcNAc(b1-2)Man
# Procedure, shortened: as §1
# [30] = molecular target: Neu5Ac(a2-3)Gal(b1-4)GlcNAc(b1-2)Man(a1-3)[GlcNAc(b1-4)][Neu5Ac(a2-3)Gal(b1-4)GlcNAc(b1-2)Man(a1-6)]Man(b1-4)GlcNAc(b1-4)GlcNAc
# Procedure, shortened: as §1
# [31] = molecular target: Neu5Ac(a2-3)Gal(b1-4)GlcNAc(b1-2)Man(a1-3)[Neu5Ac(a2-3)Gal(b1-4)GlcNAc(b1-2)Man(a1-6)]Man(b1-4)GlcNAc(b1-4)GlcNAc
# Procedure, shortened: as §1
# [32] = molecular target: Neu5Ac(a2-3)Gal(b1-4)GlcNAc(b1-2)Man(a1-3)[Neu5Ac(a2-3)Gal(b1-4)GlcNAc(b1-2)Man(a1-6)]Man(b1-4)GlcNAc(b1-4)[Fuc(a1-6)]GlcNAc
# Procedure, shortened: as §1
# [33] = molecular target: Neu5Ac(a2-3)Gal(b1-4)GlcNAc(b1-2)Man(a1-3)[Neu5Ac(a2-6)Gal(b1-4)GlcNAc(b1-2)Man(a1-6)]Man(b1-4)GlcNAc(b1-4)GlcNAc
# Procedure, shortened: as §1
binder,measurement,setting,value
diCBM40 CPF071 (Clostridium perfringens) (protein) MAHHHHHHVGTGSNDDDDKSPDPMLSSLGEYKDINLESSNASNITYDLEKYKNLDEGTIVVRFNSKDSKIQSLLGISNSKTKNGYFNFYVTNSRVGFELRNQKNEGNTQNGTENLVHMYKDVALNDGDNTVALKIEKNKGYKLFLNGKMIKEVKDTNTKFLNNIENLDSAFIGKTNRYGQSNEYNFKGNIGFMNIYNEPLGDDYLLSKTGETKALNGSELGSGSGLSSLGEYKDINLESSNASNITYDLEKYKNLDEGTIVVRFNSKDSKIQSLLGISNSKTKNGYFNFYVTNSRVGFELRNQKNEGNTQNGTENLVHMYKDVALNDGDNTVALKIEKNKGYKLFLNGKMIKEVKDTNTKFLNNIENLDSAFIGKTNRYGQSNEYNFKGNIGFMNIYNEPLGDDYLLSKTGETK,glycan array binding signal (z-score),[1],-0.322
same,glycan array binding signal (z-score),[2],-0.245
same,glycan array binding signal (z-score),[3],-0.321
same,glycan array binding signal (z-score),[4],-0.312
same,glycan array binding signal (z-score),Man(a1-6)Man,-0.274
same,glycan array binding signal (z-score),Man(b1-4)GlcNAc,-0.241
same,glycan array binding signal (z-score),MurNAc(b1-4)GlcNAc,-0.264
same,glycan array binding signal (z-score),Neu5Ac(a2-3)Gal,2.38
same,glycan array binding signal (z-score),[5],0.163
same,glycan array binding signal (z-score),[6],-0.036
same,glycan array binding signal (z-score),[7],-0.232
same,glycan array binding signal (z-score),[8],0.404
same,glycan array binding signal (z-score),[9],-0.278
same,glycan array binding signal (z-score),[10],2.26
same,glycan array binding signal (z-score),[11],0.623
same,glycan array binding signal (z-score),[12],0.256
same,glycan array binding signal (z-score),[13],-0.21
same,glycan array binding signal (z-score),[14],-0.3
same,glycan array binding signal (z-score),[15],5.89
same,glycan array binding signal (z-score),[16],-0.162
same,glycan array binding signal (z-score),[17],-0.055
same,glycan array binding signal (z-score),[18],-0.009
same,glycan array binding signal (z-score),[19],-0.181
same,glycan array binding signal (z-score),[20],-0.155
same,glycan array binding signal (z-score),[21],4.37
same,glycan array binding signal (z-score),[22],-0.094
same,glycan array binding signal (z-score),[23],-0.047
same,glycan array binding signal (z-score),[24],0.073
same,glycan array binding signal (z-score),[25],0.81
same,glycan array binding signal (z-score),[26],-0.254
same,glycan array binding signal (z-score),[27],8.45
same,glycan array binding signal (z-score),Neu5Ac(a2-3)Gal(b1-4)Glc,1.35
same,glycan array binding signal (z-score),[28],4.46
same,glycan array binding signal (z-score),[29],-0.288
same,glycan array binding signal (z-score),[30],-0.074
same,glycan array binding signal (z-score),[31],1.89
same,glycan array binding signal (z-score),[32],5.75
same,glycan array binding signal (z-score),[33],-0.116
